In publication PMC10516627 (Nucleic Acids Research, 2023):

Target: T1, His-HDAC6 (human, UniProt Q9UBN7 1-1215)
T1 sequence (looked up): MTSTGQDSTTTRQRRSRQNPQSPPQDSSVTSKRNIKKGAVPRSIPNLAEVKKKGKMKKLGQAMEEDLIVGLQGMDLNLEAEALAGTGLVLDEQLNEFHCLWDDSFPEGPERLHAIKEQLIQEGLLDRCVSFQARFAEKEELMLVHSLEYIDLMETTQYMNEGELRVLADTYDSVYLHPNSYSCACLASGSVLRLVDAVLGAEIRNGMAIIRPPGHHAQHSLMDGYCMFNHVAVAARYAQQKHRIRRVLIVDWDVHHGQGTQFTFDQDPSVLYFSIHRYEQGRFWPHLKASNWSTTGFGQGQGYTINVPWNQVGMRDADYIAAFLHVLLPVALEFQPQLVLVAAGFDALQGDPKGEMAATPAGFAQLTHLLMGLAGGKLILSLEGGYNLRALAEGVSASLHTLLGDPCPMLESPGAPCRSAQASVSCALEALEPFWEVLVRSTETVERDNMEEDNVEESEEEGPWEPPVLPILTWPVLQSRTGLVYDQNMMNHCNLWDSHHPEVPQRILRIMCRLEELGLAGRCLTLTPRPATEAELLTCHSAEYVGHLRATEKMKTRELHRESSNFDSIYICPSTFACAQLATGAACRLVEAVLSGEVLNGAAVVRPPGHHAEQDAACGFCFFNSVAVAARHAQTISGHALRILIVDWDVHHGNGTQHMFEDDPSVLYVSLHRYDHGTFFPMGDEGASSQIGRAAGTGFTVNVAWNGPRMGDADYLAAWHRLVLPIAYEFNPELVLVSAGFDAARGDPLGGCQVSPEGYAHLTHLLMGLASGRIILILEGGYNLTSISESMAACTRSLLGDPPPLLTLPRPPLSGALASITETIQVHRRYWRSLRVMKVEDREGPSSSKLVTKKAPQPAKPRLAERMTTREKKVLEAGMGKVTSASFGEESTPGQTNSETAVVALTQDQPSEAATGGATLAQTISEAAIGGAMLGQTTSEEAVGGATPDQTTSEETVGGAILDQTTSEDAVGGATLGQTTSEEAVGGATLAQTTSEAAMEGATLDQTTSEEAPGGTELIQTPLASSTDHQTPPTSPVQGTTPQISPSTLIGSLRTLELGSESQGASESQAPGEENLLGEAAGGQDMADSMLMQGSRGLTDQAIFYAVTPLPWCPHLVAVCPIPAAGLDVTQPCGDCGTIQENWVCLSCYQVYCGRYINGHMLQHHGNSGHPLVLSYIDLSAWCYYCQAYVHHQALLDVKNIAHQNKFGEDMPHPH
Assay: pull-down

B1: GST-RNF168 UDM1 and UDM2 domain ([…] aa) (domain or fragment)
chain: not shown
B1: binds.
